# Results as given in the supplement of paper PMC3334620.
# In all, about 33,000 sequences were measured (“E-score (-0.5 to 0.5)”: median about -0.016, highest 2% from about 0.31 on). The list shows a part of the results.
# Target: Cst6 (UniProt P40535)
# Assay: PBM E-score (8-mer binding enrichment) (E-score (-0.5 to 0.5)); higher = stronger / more preferred TF binding; most listed sequences are background and not binding sites
# Settings: protein concentration: 200 nM; construct: GST-DNA-binding domain
# In short: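 For each ungapped eight-base word taken together with its reverse complement, the Universal PBM Analysis Suite assigned an E-score. Binding data came from GST-tagged yeast transcription factors, applied at about 100-200 nM, on universal all-10-mer Agilent arrays made double-stranded by primer extension. Fluorescent anti-GST marked bound protein, and scans were normalised with masliner.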
row,Sequence,PBM E-score
1,ACACAACC,0.0407
2,CATGATTC,0.00239
3,AATAAAAC,0.206
4,GGCAAGTA,-0.0549
5,CGTGCAGC,-0.0203
6,GTATTCCA,0.026
7,CGAAGTGC,0.245
8,CCTAGGCG,-0.0842
9,TTACTAAA,0.252
10,CACCGACC,0.0233
11,CAAGCAAG,-0.0686
12,AATGTTAA,0.0712
13,ACTGCGAT,-0.0542
14,AGACCGCA,-0.189
15,GGAGATCC,-0.194
16,AATGTCTA,0.00848
17,TTGCAAAA,0.109
18,AACATATA,0.137
19,AGGGCTGG,-0.236
20,CTAAGTTC,-0.148
21,GACCCGTC,-0.294
22,CGGGGGGA,-0.487
23,CATTTGGA,0.0838
24,AGAGTTCA,-0.304
25,CAAAAAGA,0.07

row,Sequence,PBM E-score
1,CGTTAGGC,0.0088
2,ACCCAGAG,-0.0523
3,CTACGACA,0.0462
4,CCCGCCAG,-0.205
5,CTCGGAGC,-0.0422
6,AACCTACT,-0.0169
7,CATTTCCG,0.12
8,AAGGGTGC,-0.142
9,TAGTCTCA,-0.135
10,ACCCCACA,-0.107
11,ATTACCGC,0.154
12,GTCACTAA,0.302
13,AGGCGCGA,0.205
14,GCTTCCCC,-0.255
15,ATCAACCC,-0.0415
16,TCAAGGGA,-0.0709
17,AGCTCCAA,0.0556
18,CCTGGCAA,-0.276
19,GGCCTCGA,-0.178
20,TCAGACCA,-0.0207
21,GAACTAAA,0.173
22,AGCTTGAA,-0.0483
23,ATCATCTG,0.178
24,AAGATTTC,0.0274
25,ACCATTTG,0.0351

row,Sequence,PBM E-score
1,AACTATAT,0.236
2,AGTAGCTG,-0.113
3,CGTGCTAG,-0.275
4,GAGGCGTA,0.0667
5,CGTGTCAA,-0.112
6,CAGTCCCG,-0.301
7,GCGATTAA,0.189
8,CGAGGAAG,-0.212
9,AGTGCGTA,-0.0215
10,GAAGGATC,-0.203
11,ACCACGTA,0.132
12,CGTGAGCA,-0.0624
13,CAATACCG,-0.0941
14,ACTTCTCA,0.0961
15,GACAGTGC,0.0144
16,CGCTTCCA,0.0555
17,GTTTGGAA,0.0575
18,ATTTTACC,0.264
19,GGACAGAC,-0.185
20,CGCGACAC,0.00659
21,ATAGGCGG,0.0357
22,CCTTTCAG,-0.0309
23,GGAGCGCA,-0.354
24,CAAGTTAC,0.0951
25,CCTTATGA,0.159

row,Sequence,PBM E-score
1,ACATGCGT,0.0576
2,ACAATGTG,0.0986
3,GTTTGAAA,0.174
4,CGCTTACC,-0.0239
5,GCCACATA,0.0537
6,AAATGCGG,0.106
7,CACCACCA,-0.00098
8,CCTTAACG,0.047
9,GTTACTCA,0.0812
10,CTTGCGCA,0.131
11,CCGACGGC,-0.0821
12,CGTGATGC,0.184
13,CGGGATGC,-0.276
14,GCGCATTA,-0.118
15,AGATCTTA,0.128
16,CTTTGCGC,0.228
17,CATTTCGC,0.0606
18,ATCAAGCG,0.199
19,AAAATGAA,0.155
20,CGACGGAC,-0.0405
21,GATGTGTA,0.0177
22,CCATTGGA,-0.142
23,CCTGTTTA,0.156
24,CACGTGGC,-0.0245
25,CGAGTAAG,0.0298

row,Sequence,PBM E-score
1,GGACCACC,-0.254
2,GGCCCACA,-0.175
3,CTTAAACC,-0.168
4,GACAATCA,-0.0343
5,ATCCGTAC,0.173
6,ACATGCAA,0.11
7,CGATGAAC,-0.0118
8,ACAAGTGG,-0.119
9,CCTCGCGA,-0.196
10,AGGCGGTC,-0.282
11,AGAAATAC,0.0948
12,AGGATACG,-0.0326
13,CTTTCTTC,-0.0997
14,CGATGTAG,-0.0606
15,AACAAATT,0.32
16,CTAACGGA,0.00797
17,GGAACATA,-0.0662
18,AGTATTTA,0.171
19,AGCTAGCT,0.0292
20,AACACGGT,-0.0651
21,GAGGAGGC,-0.21
22,CTGAAACA,-0.0169
23,ATGGTAGA,0.136
24,CTTCAAAC,-0.0167
25,AGCTAGTA,-0.0691

row,Sequence,PBM E-score
1,GCGATGAA,0.0225
2,GAAAAGTA,0.151
3,AATGTGCA,0.00635
4,TTGCGAAA,0.151
5,AAGTTTCC,0.0622
6,AAGCAAGC,-0.108
7,GTAAATAC,0.13
8,AGTGAGCG,-0.00374
9,GGAGTGCA,-0.15
10,GAATGAGA,-0.0479
11,AGCATGGG,-0.178
12,CCGTTCCC,-0.0554
13,ACAGCAAT,0.121
14,GAGCAGCA,0.0584
15,ATACGATC,0.0912
16,GATCTGCC,-0.116
17,AAAGAATC,-0.12
18,ACTTCGAT,0.179
19,CGCTACTC,-0.0758
20,AAGGGGTG,-0.193
21,GCCTGCAA,-0.222
22,AGTGTAGC,0.0136
23,AGAGCTAG,-0.0602
24,CTAGAGGA,-0.162
25,GTAGTCAC,-0.0594

row,Sequence,PBM E-score
1,CTAAGTAG,0.0461
2,AGTACCGG,-0.229
3,AGAATACC,0.109
4,GACCGGGC,-0.224
5,CGAGACTC,-0.165
6,GAGGTCGC,-0.02
7,TAGTTTAA,0.19
8,CATGCATG,0.0335
9,AGTGGCCA,-0.0581
10,AACTCATT,-0.0241
11,ACCGCCGT,0.209
12,GCGTAGCA,-0.0701
13,TAACCCTA,-0.197
14,GGGACGTA,0.0851
15,AAAAGTGT,0.0733
16,GCTCCCCA,-0.38
17,CTTGGGCA,-0.0886
18,ACCCTGCA,-0.0112
19,CAACATGG,-0.0222
20,ATGGCACG,0.111
21,AACGATTA,0.124
22,ATCGGCGA,-0.156
23,ATACGTAT,0.376
24,ATAGATTC,0.0789
25,CTGTAGCC,-0.0695

row,Sequence,PBM E-score
1,AAGCTTCC,-0.198
2,GGGCAGGA,-0.215
3,ATTATGTC,0.359
4,TGTAGCAA,-0.178
5,GCTCACCA,-0.205
6,AATTACCA,0.202
7,GCCCATAA,-0.228
8,CGCTTACA,0.0933
9,GAATCGAC,0.00906
10,CTAACCTA,1e-05
11,GAGACTGA,-0.0322
12,CAGTAATC,0.1
13,AGACAAAG,-0.0312
14,AACTTTAT,0.147
15,TAATAACA,0.245
16,GCCATGTA,-0.0589
17,ACGATCCA,-0.0144
18,ACTGACAT,0.267
19,CCTCTAAC,-0.116
20,GGCTAAAA,-0.0694
21,AGACGAGA,0.0197
22,ATAGATCC,-0.0277
23,ATTTTACG,0.316
24,CGAATGAG,0.167
25,ACCGGATC,-0.149

row,Sequence,PBM E-score
1,ATATTCAA,0.222
2,GGACAAGA,-0.0276
3,CCTAAGAA,0.0394
4,GTCCCCCA,-0.332
5,GCAATGCC,-0.0854
6,CCACGTAA,0.275
7,AACGATAC,-0.0951
8,GCATCGCA,-0.282
9,AATTAGAT,0.17
10,GCCGAAAC,-0.156
11,GATAGTCC,-0.124
12,CCACTCCG,-0.169
13,GTATTGGA,-0.038
14,AAGGTTGG,0.0155
15,GATTGAGA,0.141
16,CTTAGTCA,0.0314
17,AAGCTACG,0.0334
18,CTGGGAAC,-0.0551
19,ACTTTGGA,0.149
